84 variants from the RNAGym collection of RNA variant scans (doi:10.1073/pnas.2313332121) can be followed below.

Variants at the background level are over-represented here.

B1: TPR 5TU (parent)
chain: GGAUCUUCUCGAUCUAACAAAAAAGACAAAUCUGCCACAAAGCUUGAGAGCAUCUUCGGAUGCAGAGGCGGCAGCCUUCGGUGGCGCGAUAGCGCCAACGUUCUCAACUAUGACACGCAAAACGCGUGCUCCGUUGAAUGGAGUUUAUCAUG

Variants of B1 are the subject of the data set. The data set can be described thus: polymerase ribozyme fitness, log enrichment relative to wild type (log ratio); higher = more active; in vitro selection for triplet polymerase activity. In outline:
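Streptavidin-bead capture of gel-excised extended constructs, followed by RT-PCR, closed a single triplicate in vitro selection round. That round began by annealing PCR-built, transcribed mutant libraries of each subunit of a heterodimeric triplet polymerase ribozyme with a biotinylated primer, the partner subunit and triplets, then incubating them frozen at −7 °C. After Illumina sequencing of inputs and outputs, genotypes needed ≥10 input reads and ≥1 read per output. Fitness is the base-2 logarithm of genotype enrichment over wild-type enrichment, using inverse-variance-weighted replicate averages.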
Turning to A29U U44G G141C, the “polymerase ribozyme fitness (log ratio)” value is ≤ -4.2.

With A29C A52G G83C A106C, the “polymerase ribozyme fitness (log ratio)” value is ≤ -4.2. With A29G U144A, the “polymerase ribozyme fitness (log ratio)” value was ≤ -4.2. With A29U C38A G88C C114G, the “polymerase ribozyme fitness (log ratio)” value is ≤ -4.2.

Consider A28U U44A C76U C125G, for which the “polymerase ribozyme fitness (log ratio)” value is ≤ -4.2. For A29C A39U C96A the value was ≤ -4.2; for A29C A40G C123A U127A, ≤ -4.2. For A30U C32G C54A C57G C99U A107G the value was ≤ -4.2; for A29G U56A G59U G84A A98G A107U, ≤ -4.2; for A29U A30C U78C C87U A89U, ≤ -4.2.

Turning to A29G G48A C75U, the “polymerase ribozyme fitness (log ratio)” value is ≤ -4.2. In the case of A30G C36A A66G G117U G126U, the “polymerase ribozyme fitness (log ratio)” value was ≤ -4.2. As for A28U G48U, the “polymerase ribozyme fitness (log ratio)” value is ≤ -4.2. As to A29C C54U C85U, the “polymerase ribozyme fitness (log ratio)” value is ≤ -4.2.

For the variant A29G A52C C93A U148A, the “polymerase ribozyme fitness (log ratio)” value was ≤ -4.2.

For the variant A29U A60C A66U G80A G140U G141A, the “polymerase ribozyme fitness (log ratio)” value was ≤ -4.2.

As for A29U U134A, the “polymerase ribozyme fitness (log ratio)” value was ≤ -4.2. For A29U U78A U82C C85U G143C the value was ≤ -4.2. For A30U A52C C96G U101G U148A the value was ≤ -4.2. A30U C32G C54U C96G U146A: the “polymerase ribozyme fitness (log ratio)” value is ≤ -4.2. For A29U G46U U61G A66U C85A U148G the value was ≤ -4.2; for A30U A89U C95A G117A A138G G140U, ≤ -4.2; for A30G G86C A147C, ≤ -4.2. A28U A41U G50C G84A C99G U127C A150U: the “polymerase ribozyme fitness (log ratio)” value is ≤ -4.2. As for A30U C43U G70U C87G, the “polymerase ribozyme fitness (log ratio)” value was ≤ -4.2. For A29C C51U G59A C87A C96A U111G U145A U151A the value was ≤ -4.2; for A30C G67C G68A G88A C93A U135C G141C, ≤ -4.2.

In the case of A28U A41G G50U, the “polymerase ribozyme fitness (log ratio)” value is ≤ -4.2. For the variant A29U A52C C57U C87G G126C, the “polymerase ribozyme fitness (log ratio)” value is ≤ -4.2. For the variant A29U G81C C93U, the “polymerase ribozyme fitness (log ratio)” value was ≤ -4.2.

A28U G50U G71A G112A A150C: the “polymerase ribozyme fitness (log ratio)” value is ≤ -4.2.

Consider A30G A60G C93A C105G C132A A142U, for which the “polymerase ribozyme fitness (log ratio)” value was ≤ -4.2. For A30U A60C G62A C76A C96G U127G G143C the value was ≤ -4.2.

With A29G G86U G143A, the “polymerase ribozyme fitness (log ratio)” value was ≤ -4.2.

In the case of A28U A41C G67U U78A G88A C96G A107U G117C, the “polymerase ribozyme fitness (log ratio)” value is ≤ -4.2. Take A29C U33G G34U G50C G84C G100C C108A A113U G141U: the “polymerase ribozyme fitness (log ratio)” value was ≤ -4.2.

For A29U A40U A47G U77A U82C G92U A119C C125U U144C, the “polymerase ribozyme fitness (log ratio)” value was ≤ -4.2.

In the case of A29U C85G A106U, the “polymerase ribozyme fitness (log ratio)” value was ≤ -4.2. As for A30U A39G A47C U55G U134G, the “polymerase ribozyme fitness (log ratio)” value was ≤ -4.2. As for A29U U55G U78A G92C C118U U145A, the “polymerase ribozyme fitness (log ratio)” value was ≤ -4.2.

Regarding A28U C51A A52C C99U A106G A120U, the “polymerase ribozyme fitness (log ratio)” value is ≤ -4.2. For A28U A52U G140U A142U the value was ≤ -4.2; for A29U U45G C54G A91U C129G U148G, ≤ -4.2. For A29U A66U C79A G83A C96A A142U the value was ≤ -4.2. For A28U C87G C118G the value was ≤ -4.2; for A29G G86U, ≤ -4.2.

For A29G A41C, the “polymerase ribozyme fitness (log ratio)” value is -3.63. For A29C C57U U78G G141A the value was ≤ -4.2; for A29C C69U U146A, ≤ -4.2; for A29U A47U A60G G83U G84U U144A, ≤ -4.2.

For A30G A97G G141C U146C, the “polymerase ribozyme fitness (log ratio)” value was ≤ -4.2. For A29C G58C C69U G71U the value was ≤ -4.2; for A29G U55G A91G C95A U101G, ≤ -4.2; for A29C C85G C96A G133U U151G, ≤ -4.2.

As to A29U A49C C63U C116U G133C U139A U146A, the “polymerase ribozyme fitness (log ratio)” value is ≤ -4.2. For A29C A47C A64C C99A A115U G141C U146A the value was ≤ -4.2; for A30G C51A A91U C123U U134G, ≤ -4.2. For A30U A52G G81A the value was ≤ -4.2; for A29U U31G A47C U61A G81A C95U G100U, ≤ -4.2. With A30U C35A C131G, the “polymerase ribozyme fitness (log ratio)” value is ≤ -4.2. In the case of A29C C35G G48U G81C A121G, the “polymerase ribozyme fitness (log ratio)” value was ≤ -4.2. As for A28U C87A, the “polymerase ribozyme fitness (log ratio)” value is ≤ -4.2. For A29U C51U G94A C99G the value was ≤ -4.2; for A28U A47G G59A U77G A110U A137U U145A, ≤ -4.2. With A29U C51G A52C C93U A98U A138G, the “polymerase ribozyme fitness (log ratio)” value is ≤ -4.2. For A29U A37C G124C the value was ≤ -4.2; for A29U C36U G62A U109G, ≤ -4.2; for A29C A30U C85G U146C U151A, ≤ -4.2. Turning to A30U A66U C85U A106C, the “polymerase ribozyme fitness (log ratio)” value is ≤ -4.2.

As to A30U C36U G58U G83C C87U U104G A115U U146G, the “polymerase ribozyme fitness (log ratio)” value was ≤ -4.2. With A29G A52C G92U A107U G133U G141A G143A, the “polymerase ribozyme fitness (log ratio)” value is ≤ -4.2. For A28U C72G A107C G126U U144C the value was ≤ -4.2; for A29C G59A C131U, ≤ -4.2; for A29G A41C A60U C85G G86U C116G G133C A142G A150G, ≤ -4.2. For A29U U53A C75U U78C C93U C105A U130G the value was ≤ -4.2.

For A29U G48A G50C G83C A120U G133C, the “polymerase ribozyme fitness (log ratio)” value was ≤ -4.2.

For the variant A28U C36A A40U U82A G86A A113C, the “polymerase ribozyme fitness (log ratio)” value was ≤ -4.2.

Take A30U C54U C57A A64G G84A A107G C118G G143A: the “polymerase ribozyme fitness (log ratio)” value was ≤ -4.2. For A29U U45A G46A G133U A142G A150G the value was ≤ -4.2; for A30G A49C C54A C69U C87G C114G C131U A142C, ≤ -4.2; for A28U G50A, ≤ -4.2.

As to A30U C32U C72A C96G A120U G124A G128A, the “polymerase ribozyme fitness (log ratio)” value is ≤ -4.2. As to A29U U31G C38A A40C A60G C85U A115U, the “polymerase ribozyme fitness (log ratio)” value is ≤ -4.2. With A29G A41C U102A G141U G152A, the “polymerase ribozyme fitness (log ratio)” value was ≤ -4.2.
